Measured values from publication PMC7819943, “Rice protein-binding microarrays: a tool to detect cis-acting elements near promoter regions in rice”.
The list shows a part of the results.

The sequences below were run against T1, OsWOX13 (Oryza sativa, UniProt Q5QMM3 1-267) (assay: protein-binding microarray (RPBM); PBS, 2% BSA, 51.3 ng/ul salmon testes DNA, 50 uM zinc acetate, 200 nM TF, 25 C, 1 h; high values mean tight binding). Conditions: protein: recombinant; tags: N-terminal polyhistidine and DsRed monomer fusion (pET32a); label: CyDye5-dUTP incorporated in the synthesized complementary strand; 3' TTTTT single-stranded linker to array surface; dsDNA, one strand shown.
T1 sequence: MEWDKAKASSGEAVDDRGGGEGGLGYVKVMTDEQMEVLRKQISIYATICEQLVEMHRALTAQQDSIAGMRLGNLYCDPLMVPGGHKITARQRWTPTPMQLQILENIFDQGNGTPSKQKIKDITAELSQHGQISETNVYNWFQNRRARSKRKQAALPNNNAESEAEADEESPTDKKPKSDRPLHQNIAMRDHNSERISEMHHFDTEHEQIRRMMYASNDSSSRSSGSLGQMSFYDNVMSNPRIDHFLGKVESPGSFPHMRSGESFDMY
Method in brief: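 Per-feature fluorescence intensity (arbitrary units), read on an Axon 4000B scanner, is the binding signal. Transcription factors carrying an N-terminal polyhistidine tag and DsRed fusion were expressed in E. coli BL21-CodonPlus and purified on Ni–NTA. A custom Agilent array, made double-stranded by primer extension with Cy5-dUTP and blocked with 2% BSA, was incubated with 200 nM protein in PBS, 2% BSA, salmon testes DNA and 50 µM zinc acetate at 25 °C for 1 h and then washed.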

Sequence	binding signal
GCTTGTCTCCGTTGATTGGTGGTAGCTTGTGTGATCCACACGGAGTCACCTAGTGCAG	21100 fluorescence intensity (a.u.)
CATGAGAAAATGATTAATTAATAAACGATATTAGAACTTGCGGAGTCACCTAGTGCAG	18200 fluorescence intensity (a.u.)
GTGATGTAGCAGTAGTCAATCAACCGAACCTGGCGAGTGGCGGAGTCACCTAGTGCAG	9180 fluorescence intensity (a.u.)
ATATGCTCCAGAAAATTATCAATTATTTAAAATGTCTTTTCGGAGTCACCTAGTGCAG	5220 fluorescence intensity (a.u.)
GGATGATGATTACCATGAACACATTCCTCCCGAGCTATTACGGAGTCACCTAGTGCAG	23000 fluorescence intensity (a.u.)
TGACAAATTAAGGGACCTTAGATGAACTTATTCCTTTTCTCGGAGTCACCTAGTGCAG	3820 fluorescence intensity (a.u.)
AATAATTAAAGAGTGTGGTGCATATCAATCCCCTTTAACCCGGAGTCACCTAGTGCAG	13200 fluorescence intensity (a.u.)
ACAAAATAACAACATCAAATTTGTTGAAGTCACATACCCTCGGAGTCACCTAGTGCAG	4460 fluorescence intensity (a.u.)
TTTGTACTGATTACTCACTGGATTGGTTTAGTAACAACGTCGGAGTCACCTAGTGCAG	26800 fluorescence intensity (a.u.)
CACTGACAGCACGTGAGACGTGGCCTGCAAATCGTGCATCCGGAGTCACCTAGTGCAG	7090 fluorescence intensity (a.u.)
AATAGATTGTTTAGATTTATTTTCTTAGAATAAGTCCTATCGGAGTCACCTAGTGCAG	18300 fluorescence intensity (a.u.)
AGAAATAAATCATAAATGTATTAAATGTATCATCAACCTTCGGAGTCACCTAGTGCAG	4800 fluorescence intensity (a.u.)
GCGAGGCTGATCGGTAGTGATTGATGTCGTAGATGTTATGCGGAGTCACCTAGTGCAG	14800 fluorescence intensity (a.u.)
AAAATATATTCAATTATTGATTTGGCTAAACTAATTTAGTCGGAGTCACCTAGTGCAG	24200 fluorescence intensity (a.u.)
TGAGACTGATTGTTCTGCACTGGTGGGTGCCTTGACATCACGGAGTCACCTAGTGCAG	23900 fluorescence intensity (a.u.)
GACCTAGTTAGAGATTGATTCTAATTCAGTTAACATGCCACGGAGTCACCTAGTGCAG	8160 fluorescence intensity (a.u.)
CAAATACTTAATTATTCACCCGCTAATCGCTGCTCTGTTTCGGAGTCACCTAGTGCAG	11900 fluorescence intensity (a.u.)
TATGAACAATGAATTAATTAAAGCTTGTTTAGACTGGAGTCGGAGTCACCTAGTGCAG	8460 fluorescence intensity (a.u.)
TGTTTGCTTGCTTGATTGGTCCCTTGTCTTGTTATTAGTCCGGAGTCACCTAGTGCAG	16000 fluorescence intensity (a.u.)
ATTATACTGGTTTTAGATAATTTGAAGCTAGTAGCTGGCTCGGAGTCACCTAGTGCAG	3410 fluorescence intensity (a.u.)
CGAAGGTCGTGTGATTGAATTCCCTCACCTATACGCATGCCGGAGTCACCTAGTGCAG	28200 fluorescence intensity (a.u.)
TAATTGATAGATCTACTACTACCTTCTCTTCTCCCAGAAACGGAGTCACCTAGTGCAG	28600 fluorescence intensity (a.u.)
CAAAATTGGGGAAAATTGACCTACACCTCAATGGAACACACGGAGTCACCTAGTGCAG	24500 fluorescence intensity (a.u.)
CATCACCAAAATCTGATTGATTGACATAAGCATTGGAACACGGAGTCACCTAGTGCAG	49600 fluorescence intensity (a.u.)
TGGGGAAAATGTTAATTAGAAATATGAGATTTTGGCCTACCGGAGTCACCTAGTGCAG	12900 fluorescence intensity (a.u.)
CCGTCGACATGGCCAATCAATCAATCCTCCAGCAAATTCACGGAGTCACCTAGTGCAG	11400 fluorescence intensity (a.u.)
TAAACGTGGTAATTTGACAGTAGACACTGCACCGATTAAACGGAGTCACCTAGTGCAG	4210 fluorescence intensity (a.u.)

Sequence	binding signal
AGATAATTGCACAAGTATTGGAAATATATATACTAGCACACGGAGTCACCTAGTGCAG	11600 fluorescence intensity (a.u.)
ACCGGTAATTGACTTCACTTATGACCTATAACCTATAACTCGGAGTCACCTAGTGCAG	40200 fluorescence intensity (a.u.)
GTCTAGTCTGTGATTGGGACCCAAGCAAGCATACAGAGAGCGGAGTCACCTAGTGCAG	17400 fluorescence intensity (a.u.)
GAGCTCACTTATATGGGTTAATTGATCCATGCCATTGCAACGGAGTCACCTAGTGCAG	7660 fluorescence intensity (a.u.)
TACTCCGTAATTAAATAATTTCGTTTTGGAGCTCGACCTGCGGAGTCACCTAGTGCAG	23100 fluorescence intensity (a.u.)
CTCAAATTTTGCAAAATTATAATGGCATGGTTCCAATTTTCGGAGTCACCTAGTGCAG	15400 fluorescence intensity (a.u.)
GGAAGCTGATTTAATTGTGGTTTGTCAGGTTGACTGCATTCGGAGTCACCTAGTGCAG	18300 fluorescence intensity (a.u.)
TACTGATGAACTGAAGATATGTAGTACCAGCTAACAGGGACGGAGTCACCTAGTGCAG	3320 fluorescence intensity (a.u.)
CACTTCCTTCGTACCTGGGCTATCCTTCAGAAGCCTGGTTCGGAGTCACCTAGTGCAG	6490 fluorescence intensity (a.u.)
CATCAATCACTCCGGTAATTAATCACCAGCCTAATCTTTTCGGAGTCACCTAGTGCAG	46000 fluorescence intensity (a.u.)
GTGAGAATTGATGTATTCTCCTCCGGAAACACTTTTAATCCGGAGTCACCTAGTGCAG	6960 fluorescence intensity (a.u.)
CCTACAATCAAGTACATAATCCGTTTAATAATCTGTTTCACGGAGTCACCTAGTGCAG	5420 fluorescence intensity (a.u.)
GTTTGACAGACAGGTGGCGTAGCACCTAACCTGGATCAGACGGAGTCACCTAGTGCAG	20100 fluorescence intensity (a.u.)
CCTAGCTAATCAAACTTATCCTCGAATTTCGAAAACACATCGGAGTCACCTAGTGCAG	3550 fluorescence intensity (a.u.)
CAGTTGACTGTTTGATGTTGAGAAATCAACTTCAAACCTTCGGAGTCACCTAGTGCAG	6730 fluorescence intensity (a.u.)
CTCTAATTGCTACATTTTAGGATGAGGGTGGTGTAACTGTCGGAGTCACCTAGTGCAG	35800 fluorescence intensity (a.u.)
TAAAATTAGCTTGTACCTCGTAATTGTCGTTGTTTACACCCGGAGTCACCTAGTGCAG	8240 fluorescence intensity (a.u.)
CTAAATTATGTTAATAACAGCTTCTCTTCATTCATGTAACCGGAGTCACCTAGTGCAG	27800 fluorescence intensity (a.u.)
TTGCTGATTAAAACTAAATGTTTTCTCGAAAGCTTCAGATCGGAGTCACCTAGTGCAG	18800 fluorescence intensity (a.u.)
AATACCACAAATTAATCAGTCAAAGCATAAAACTAAAAGGCGGAGTCACCTAGTGCAG	4910 fluorescence intensity (a.u.)
TTATTGTAATTTACTGAAATGTTGGTCAAATTAAGTCAAGCGGAGTCACCTAGTGCAG	8320 fluorescence intensity (a.u.)
ATGATAGATTTCCCGGCCCAATAACCCTCACCCCAGGTGACGGAGTCACCTAGTGCAG	5160 fluorescence intensity (a.u.)
GCTATTTCTCTTTGCCAATCACTTCCCCTTTCTTTTGTGACGGAGTCACCTAGTGCAG	4260 fluorescence intensity (a.u.)
TGTTAGATGATAAAACATGATTAACACTTTATGCGTGACTCGGAGTCACCTAGTGCAG	8410 fluorescence intensity (a.u.)
TTTTGATCATCCATTTTGTCTATTATCTGTGTCTAACTAACGGAGTCACCTAGTGCAG	5580 fluorescence intensity (a.u.)
TAAGACTAATTATTCTTTTAGTAATAGACGACGTACTCGCCGGAGTCACCTAGTGCAG	22300 fluorescence intensity (a.u.)
GGGATTGGACAGGTCTCACGATTTCACAAGTGCGAACGGGCGGAGTCACCTAGTGCAG	5160 fluorescence intensity (a.u.)
